Laboratory results as given in the supplement of paper PMC12217912.
The other results are listed elsewhere or left out. Sequences were assembled here from the parent chain. Inactive controls read about 0.05.

B1: TEV protease; numbered along this chain (parent)
chain: MGESLFKGPRDYNPISSSICHLTNESDGHTTSLYGIGFGPFIITNKHLFRRNNGTLVVQSLHGVFKVKDTTTLQQHLVDGRDMIIIRMPKDFPPFPQKLKFREPQREERICLVTTNFQTKSMSSMVSDTSCTFPSGDGIFWKHWIQTKDGQCGSPLVSTRDGFIVGIHSASNFTNTNNYFTSVPKNFMELLTNQEAQQWVSGWRLNADSVLWGGHKVFMVKPEEPFQPVKEATQL

Variants of: B1
Test: raw area under fraction-flipped curve 0-4 h after induction (AUC4h, not background-subtracted), DNA-recorder readout of cleavage of the substrate (dimensionless); higher = more cleavage of the substrate by the protease variant
Details: temperature: 34 °C; time window: 0-4 h after rhamnose induction
Description: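 In vivo DNA recorder in E. coli TOP10(DE3) ΔrhaA at 34 °C. Each TEVp single-site mutant (parent TEVp 0) is paired with a single-site variant of the 7-mer TEVs (canonical ENLYFQ|S). The substrate sits between flexible linkers in a Bxb1-sfGFP-TEVs-SsrA fusion, so cleavage stabilises Bxb1 and speeds flipping of a recombination array, read by NGS. The value is the raw area under the fraction-flipped curve over 0-4 h after rhamnose induction (AUC4h), with ≥20 reads per time point. It is not background-subtracted; inactive controls average about 0.047.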
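Note: Bxb1 expression induced with 0.2% (w/v) L-rhamnose at OD600 near 0.5, cultures sampled hourly, flipped fraction per protease–substrate barcode pair counted by paired-end Illumina sequencing.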

## MGESLFKGPRDYNPISSSICHLTNESDGHTTSLYGIGFGPFIITNKHLFRRNNGTLVVQSLHGVFKVKDTTTLQQHLVDGRDMIIMRMPKDFPPFPQKLKFREPQREERICLVTTNFQTKSMSSMVSDTSCTFPSGDGIFWKHWIQTKDGQCGSPLVSTRDGFIVGIHSASNFTNTNNYFTSVPKNFMELLTNQEAQQWVSGWRLNADSVLWGGHKVFMVKPEEPFQPVKEATQL [I86M]
  area with substrate ECLYFQS: 0.101
  area with substrate EDLYFQS: 0.122
  area with substrate EFLYFQS: 0.122
  area with substrate EGLYFQS: 0.104
  area with substrate EILYFQS: 0.0851
  area with substrate EKLYFQS: 0.12
  area with substrate ELLYFQS: 0.0976
  area with substrate EMLYFQS: 0.108
  area with substrate EPLYFQS: 0.121
  area with substrate EQLYFQS: 0.12
  area with substrate ETLYFQS: 0.101
  area with substrate EVLYFQS: 0.0933
  area with substrate EWLYFQS: 0.0809
  area with substrate EYLYFQS: 0.111

## MGESLFKGPRDYNPISSSICHLTNESDGHTTSLYGIGFGPFIITNKHLFRRNNGTLVVQSLHGVFKVKDTTTLQQHLVDGRDMIIPRMPKDFPPFPQKLKFREPQREERICLVTTNFQTKSMSSMVSDTSCTFPSGDGIFWKHWIQTKDGQCGSPLVSTRDGFIVGIHSASNFTNTNNYFTSVPKNFMELLTNQEAQQWVSGWRLNADSVLWGGHKVFMVKPEEPFQPVKEATQL [I86P]
  area with substrate ECLYFQS: 0.033
  area with substrate EDLYFQS: 0.0336
  area with substrate EFLYFQS: 0.049
  area with substrate EHLYFQS: 0.0417
  area with substrate EILYFQS: 0.0378
  area with substrate EPLYFQS: 0.0389
  area with substrate EQLYFQS: 0.0418
  area with substrate ESLYFQS: 0.0399
  area with substrate ETLYFQS: 0.0298
  area with substrate EWLYFQS: 0.0397
  area with substrate EYLYFQS: 0.0354

## MGESLFKGPRDYNPISSSICHLTNESDGHTTSLYGIGFGPFIITNKHLFRRNNGTLVVQSLHGVFKVKDTTTLQQHLVDGRDNIIIRMPKDFPPFPQKLKFREPQREERICLVTTNFQTKSMSSMVSDTSCTFPSGDGIFWKHWIQTKDGQCGSPLVSTRDGFIVGIHSASNFTNTNNYFTSVPKNFMELLTNQEAQQWVSGWRLNADSVLWGGHKVFMVKPEEPFQPVKEATQL [M83N]
  area with substrate ECLYFQS: 0.0651
  area with substrate EILYFQS: 0.0516
  area with substrate EKLYFQS: 0.0504
  area with substrate ELLYFQS: 0.0591
  area with substrate EMLYFQS: 0.052
  area with substrate EPLYFQS: 0.0523
  area with substrate EQLYFQS: 0.0529
  area with substrate ERLYFQS: 0.0407
  area with substrate ESLYFQS: 0.0482
  area with substrate ETLYFQS: 0.0353
  area with substrate EVLYFQS: 0.0509
  area with substrate EYLYFQS: 0.0619

## MGESLFKGPRDYNPISSSICHLTNESDGHTTSLYGIGFGPFIITNKHLFRRNNGTLVVQSLHGVFKVKDTTTLQQHLVDGRDHIIIRMPKDFPPFPQKLKFREPQREERICLVTTNFQTKSMSSMVSDTSCTFPSGDGIFWKHWIQTKDGQCGSPLVSTRDGFIVGIHSASNFTNTNNYFTSVPKNFMELLTNQEAQQWVSGWRLNADSVLWGGHKVFMVKPEEPFQPVKEATQL [M83H]
  area with substrate ECLYFQS: 0.0506
  area with substrate EDLYFQS: 0.0751
  area with substrate EGLYFQS: 0.0568
  area with substrate EHLYFQS: 0.0529
  area with substrate EILYFQS: 0.054
  area with substrate ELLYFQS: 0.074
  area with substrate EMLYFQS: 0.0651
  area with substrate ERLYFQS: 0.0486
  area with substrate ESLYFQS: 0.0436
  area with substrate EVLYFQS: 0.0615
  area with substrate EWLYFQS: 0.0458
  area with substrate EYLYFQS: 0.0638

## MGESLFKGPRDYNPISSSICHLTNESDGHTTSLYGIGFGPFIITNKHLFRRNNGTLVVQSLHGVFKVKDTTTLQQHLVDGRDMIIIRMPDDFPPFPQKLKFREPQREERICLVTTNFQTKSMSSMVSDTSCTFPSGDGIFWKHWIQTKDGQCGSPLVSTRDGFIVGIHSASNFTNTNNYFTSVPKNFMELLTNQEAQQWVSGWRLNADSVLWGGHKVFMVKPEEPFQPVKEATQL [K90D]
  area with substrate ECLYFQS: 0.147
  area with substrate EDLYFQS: 0.146
  area with substrate EFLYFQS: 0.124
  area with substrate EILYFQS: 0.0895
  area with substrate EMLYFQS: 0.115
  area with substrate ESLYFQS: 0.0915
  area with substrate ETLYFQS: 0.0972
  area with substrate EWLYFQS: 0.0963

## MGESLFKGPRDYNPISSSICHLTNESDGHTTSLYGIGFGPFIITNKHLFRRNNGTLVVQSLHGVFKVKDTTTLQQHLVDGRDMISIRMPKDFPPFPQKLKFREPQREERICLVTTNFQTKSMSSMVSDTSCTFPSGDGIFWKHWIQTKDGQCGSPLVSTRDGFIVGIHSASNFTNTNNYFTSVPKNFMELLTNQEAQQWVSGWRLNADSVLWGGHKVFMVKPEEPFQPVKEATQL [I85S]
  area with substrate ECLYFQS: 0.0563
  area with substrate EDLYFQS: 0.0436
  area with substrate EELYFQS: 0.0505
  area with substrate EFLYFQS: 0.0525
  area with substrate EHLYFQS: 0.0601
  area with substrate EILYFQS: 0.0465
  area with substrate ELLYFQS: 0.0513
  area with substrate ERLYFQS: 0.0435
  area with substrate ESLYFQS: 0.059

## MGESLFKGPRDYNPISSSICHLTNESDGHTTSLYGIGFGPFIITNKHLFRRNNGTLVVQSLHGVFKVKDTTTLQQYLVDGRDMIIIRMPKDFPPFPQKLKFREPQREERICLVTTNFQTKSMSSMVSDTSCTFPSGDGIFWKHWIQTKDGQCGSPLVSTRDGFIVGIHSASNFTNTNNYFTSVPKNFMELLTNQEAQQWVSGWRLNADSVLWGGHKVFMVKPEEPFQPVKEATQL [H76Y]
  area with substrate ECLYFQS: 0.0998
  area with substrate EDLYFQS: 0.125
  area with substrate EGLYFQS: 0.0531
  area with substrate EHLYFQS: 0.0809
  area with substrate EILYFQS: 0.0693
  area with substrate EKLYFQS: 0.0934
  area with substrate EMLYFQS: 0.0804
  area with substrate EQLYFQS: 0.0915
  area with substrate ERLYFQS: 0.0844
  area with substrate ESLYFQS: 0.0836
  area with substrate EVLYFQS: 0.085
  area with substrate EWLYFQS: 0.0825

## MGESLFKGPRDYNPISSSICHLTNESDGHTTSLYGIGFGPFIITNKHLFRRNNGTLVVQSLHGVFKVKDTTTLQQHLVDGRDMMIIRMPKDFPPFPQKLKFREPQREERICLVTTNFQTKSMSSMVSDTSCTFPSGDGIFWKHWIQTKDGQCGSPLVSTRDGFIVGIHSASNFTNTNNYFTSVPKNFMELLTNQEAQQWVSGWRLNADSVLWGGHKVFMVKPEEPFQPVKEATQL [I84M]
  area with substrate ECLYFQS: 0.101
  area with substrate EDLYFQS: 0.145
  area with substrate EGLYFQS: 0.0933
  area with substrate EKLYFQS: 0.0689
  area with substrate EQLYFQS: 0.0858
  area with substrate ERLYFQS: 0.107
  area with substrate ESLYFQS: 0.0907
  area with substrate EYLYFQS: 0.0885

## MGESLFKGPRDYNPISSSICHLTNESDGHTTSLYGIGFGPFIITNKHLFRRNNGTLVVQSLHGVFKVKDTTTLQQHLVDGRTMIIIRMPKDFPPFPQKLKFREPQREERICLVTTNFQTKSMSSMVSDTSCTFPSGDGIFWKHWIQTKDGQCGSPLVSTRDGFIVGIHSASNFTNTNNYFTSVPKNFMELLTNQEAQQWVSGWRLNADSVLWGGHKVFMVKPEEPFQPVKEATQL [D82T]
  area with substrate ECLYFQS: 0.0542
  area with substrate EELYFQS: 0.0661
  area with substrate EFLYFQS: 0.0523
  area with substrate EGLYFQS: 0.0759
  area with substrate EHLYFQS: 0.0534
  area with substrate EILYFQS: 0.0413
  area with substrate EKLYFQS: 0.0587
  area with substrate ELLYFQS: 0.0507
  area with substrate EPLYFQS: 0.0615
  area with substrate ERLYFQS: 0.0417
  area with substrate ESLYFQS: 0.0696
  area with substrate EVLYFQS: 0.0477
  area with substrate EYLYFQS: 0.0517
